# Experimental data as given in PubChem BioAssay AID463173 (ICCB-Longwood Screening Facility, Harvard Medical School, 2010).
# In all, about 52,000 compounds went through this assay and about 4,300 (8.3%) were called active. Rule as the data show it: active = survival mostly below about 52% (no sharp cut-off); inactive = mostly above about 56%. The list shows a part of the results.
# System: DeltatarO mutant
# Test: growth inhibition of S. aureus wild type versus tarO mutant, primary screen, teichoic acid synthesis inhibitors, RN4220, OD600 (AID 463173)
# Conditions: OD600, 18 h, active compounds read low, screened at 18.75 µg/mL (by protocol)
row,SMILES,survival
1,COc1ccc(OC)c(NC(=O)c2nc(S(=O)(=O)Cc3ccc(F)cc3)ncc2Cl)c1,active: -5%
2,CCc1ccc(C2CC(=O)Nc3c2c(=O)n(C)c2ncnn32)cc1 (stereo not given),inactive: 165%
3,O=C(Oc1ccc(F)cc1)N1CCOCC1,inactive: 95%
4,COc1ccc(C(=O)c2cn(CC(=O)Nc3cc(C)ccc3C)c3nc(C)ccc3c2=O)cc1,inactive: 124%
5,CCOCCCN(Cc1ccco1)C(=O)c1cc2c(s1)-c1c(C)cccc1OC2,active: -3%
6,Cc1cccc2nc(-c3ccccn3)c(Nc3ccccc3)n12,inactive: 24%
7,CCCCOC(=O)c1ccc(-n2nnc3c(sc4nc(C)cc(C)c43)c2=O)cc1,inactive: 89%
8,COc1ccc(CNC(=O)c2c(O)nc3c(C)cccn3c2=O)cc1,inactive: 69%
9,CN(C)c1ccc(CNC(=O)CCCN2C(=O)c3cccnc3Oc3ccc(Cl)cc32)cc1,inactive: 81%
10,Cc1cc(N2CCC(C)CC2)nc2ccc(NC(=O)Cc3ccccc3Br)cc12,active: 46%
11,O=S(=O)(NCCc1nnc2ccc(SCc3ccccc3Cl)nn12)c1ccccc1,active: 68%
12,CCOc1ccc(-c2nc(-c3ccccc3)c(-c3ccccc3)[nH]2)cc1OCC,inactive: 142%
13,COc1cc2nc(Nc3cccc(F)c3)nc(N)c2cc1OC,inactive: 97%
14,CCOc1ccc(S(=O)(=O)N2CCCCC2C)c2ccccc12 (stereo not given),inactive: 100%
15,Cc1ccc(NC(=O)CN(Cc2ccccc2)S(=O)(=O)c2ccc3nc(C)sc3c2)c(C)c1,inactive: 83%
16,Cc1ccc(-c2nc(CSc3nnc(C)n4c3cc3occc34)c(C)o2)cc1,inactive: 72%
17,CCCCSc1nnc2c(n1)OC(c1ccc(Br)s1)Nc1ccccc1-2 (stereo not given),active: 10%
18,COc1cccc(-c2cc(C(F)(F)F)n3ncc(C(=O)OC(C)C)c3n2)c1,inactive: 76%
19,O=C(NCc1ccccc1Cl)c1nnc(Cc2cccc(F)c2)o1,inactive: 84%
20,Cc1ccc2c(CC(=O)N(Cc3ccc(N(C)C)cc3)Cc3ccco3)coc2c1C,active: 45%
21,O=C1CSC2(C(=O)N(Cc3cccc(C(F)(F)F)c3)c3ccccc32)N1c1ccc(F)c(F)c1 (stereo not given),inactive: 81%
22,Cc1ccc(CNC(=O)Cn2ccn(-c3cccc(Cl)c3)c(=O)c2=O)cc1,inactive: 72%
23,COc1cc2c(cc1N)CCCC2,inactive: 104%

row,SMILES,survival
1,CCN(CC)C(=O)C1=C(C)Nc2nc3ccccc3n2C1c1cccc(OC)c1 (stereo not given),inactive: 62%
2,Cc1ccc(-n2c(C)cc(/C=C(\C#N)C(=O)Nc3ccc(C)c(C)c3)c2C)cc1,inactive: 48%
3,O=C(Nc1ccccc1C(F)(F)F)c1ccc(F)c(S(=O)(=O)N2CCc3ccccc3C2)c1,inactive: 75%
4,CCc1ccc(OCC(=O)N(Cc2ccc(C(C)C)cc2)C2CCS(=O)(=O)C2)cc1 (stereo not given),active: 23%
5,Cc1ccc(-c2noc(CNC(=O)c3ccc(C)c(Cl)c3)n2)cc1,inactive: 49%
6,CCCOc1ccc(C2C(=O)N(C3CCC(C)CC3)CC(=O)N2CCc2ccccc2)cc1OC (stereo not given),inactive: 109%
7,Cc1cc(C)cc(NC(=O)COc2cccc3c(=O)n(C)ccc23)c1,inactive: 89%
8,COc1ccc(CCNC(=O)c2ccc(-n3c(C)cc4c3CCC(C)C4)cc2)cc1OC (stereo not given),active: 52%
9,O=C(CNC(=O)c1ccc(F)cc1)OCc1cc(=O)n2ccsc2n1,inactive: 85%
10,COc1ccc(C(=O)Nc2ccc3oc(-c4cccc5c(Br)cccc45)nc3c2)cc1,inactive: 68%
11,CCN1CCc2c(sc(NC(=O)c3ccc(S(=O)(=O)N4CCCC(C)C4)cc3)c2C(=O)OC)C1 (stereo not given),inactive: 76%
12,Cc1cc(C(C)(C)C)oc1C(=O)O,inactive: 86%
13,Cc1c(Cl)cccc1NC(=O)C(=O)NCCc1csc(-c2ccc(C(F)(F)F)cc2)n1,inactive: 55%
14,Cc1ccccc1Cn1c(CN2CCC(C(=O)NCc3ccc(Cl)cc3)CC2)cc2ccccc21,inactive: 67%
15,O=S1(=O)c2ccccc2N(Cc2ccccc2F)c2ccccc21,inactive: 92%
16,CCCCN(C)C(=O)c1ccc2c(=O)n3nc(Nc4cc(C)ccc4C)sc3nc2c1,inactive: 125%
17,CS(=O)(=O)N1CCC(C(=O)NC2CCCCC2)CC1,inactive: 71%
18,CCOC(=O)c1c(S(=O)(=O)N2CCC(C(=O)NCc3cccc(OC)c3)CC2)c(C)n(C)c1C,inactive: 81%
19,Cc1cccc(N(C)C(=O)Cn2c(=O)oc3cc(S(=O)(=O)N4CCCCC4)ccc32)c1,inactive: 64%
20,COc1ccc(-c2nc3ccccc3o2)cc1NC(=O)Cc1ccc(Cl)cc1,inactive: 54%
21,Cc1ccc(CC2CC(=O)N(C3CCCCC3)C2=O)cc1 (stereo not given),inactive: 80%
22,COc1cccc(N2C(=O)C(CC(=O)Nc3cccc(F)c3)N(C3CCCC3)C2=O)c1 (stereo not given),inactive: 122%
23,Cn1ccnc1SCC(=O)Nc1cccc(Br)c1,inactive: 65%

row,SMILES,survival
1,COC(=O)c1ccccc1NC(=O)Cn1c(=O)n(CCC(=O)NCc2ccc3c(c2)OCO3)c(=O)c2ccccc21,inactive: 90%
2,COc1ccc(C(=O)c2cn(CC(=O)Nc3cc(OC)cc(OC)c3)c3ccc(OC)cc3c2=O)cc1,inactive: 77%
3,Cc1ccc(-c2cn3nc(N4CCCC(C(=O)NCc5ccccc5F)C4)sc3n2)cc1 (stereo not given),inactive: 78%
4,CC1=C(C(=O)OC2CCCC2)C(c2c(F)cccc2Cl)CC(=O)N1 (stereo not given),inactive: 70%
5,Cc1ccc(Cn2nc3n(c2=O)-c2cc(Cl)ccc2OC3)cc1,inactive: 83%
6,Cc1ccc(-c2csc(-c3c(N)c(C(=O)c4ccc5c(c4)OCO5)n4ccccc34)n2)cc1,inactive: 82%
7,CCOC(=O)CNC(=O)N1CCN(S(=O)(=O)c2ccc3c(ccn3C)c2)CC1,active: 32%
8,COc1ccc(CC(=O)N2CC(=O)Nc3ccc(F)cc3C2c2ccccc2)cc1 (stereo not given),inactive: 79%
9,CC(=O)c1ccc(NC(=O)C2CCN(S(=O)(=O)c3ccc4[nH]c5c(c4c3)CCCCC5)CC2)cc1,inactive: 94%
10,Cc1ccccc1CNC(=O)Cn1c(=O)c2cccn2c2cccnc21,inactive: 76%
11,COc1ccccc1CNC(=O)c1ccc(N2CCCC2)c(NC(=O)NCc2ccc(C)cc2)c1,inactive: 67%
12,CNC(=O)N(O)c1ccccc1,inactive: 76%
13,CCCOc1ccc(C2c3c(oc4ccccc4c3=O)C(=O)N2c2nnc(C(C)C)s2)cc1 (stereo not given),active: 58%
14,CC1CCCCN1C(=O)c1cccc(C(=O)N2CCCCC2C)c1 (stereo not given),inactive: 80%
15,COC(=O)c1ccc(NC(=O)Cn2c(=O)oc3ccccc32)cc1,inactive: 69%
16,Cc1nc2ccn(Cc3ccco3)c(=O)c2cc1C(=O)NCc1ccc(Cl)cc1,active: 47%
17,NC(=O)c1cc(S(=O)(=O)NCc2cccc(Br)c2)cs1,inactive: 91%
18,Cc1ccc(CNC(=O)c2ccc3c(c2)CCN3S(=O)(=O)c2ccc(Br)cc2)cc1,inactive: 80%
19,S=c1nc(-c2csc3c2CCCC3)[nH][nH]1,inactive: 82%
20,COc1ccc(C2CC(=O)c3cc(-c4nc(-c5cccc([N+](=O)[O-])c5)cs4)c(=O)n(-c4ccccc4N)c3C2)cc1 (stereo not given),inactive: 152%
21,COc1ccc(N2CC(NC(=O)C3CCCCC3)CC2=O)cc1 (stereo not given),inactive: 99%
22,CCn1c(SCC(=O)Nc2cc(C)ccc2F)nnc1-c1ccccc1O,inactive: 65%
23,CCN(c1ccc(OC)cc1)S(=O)(=O)c1ccc2[nH]c3c(c2c1)CCCCC3,inactive: 80%

row,SMILES,survival
1,COc1ccccc1N1CCN(CC(O)COc2ccc(Cl)c(C)c2)CC1 (stereo not given),inactive: 59%
2,COc1ccc(NC(=O)CSc2nnc(-c3ccncc3)n2-c2ccccc2)cc1,inactive: 77%
3,CN1CCN(C(=O)c2ccc3c(c2)N(Cc2ccc(F)cc2)C(=O)c2ccccc2S3(=O)=O)CC1,inactive: 93%
4,CCC(C)NC(=O)c1c2c(nc3ccccc13)C(=O)N(C1CCCCC1)C2 (stereo not given),inactive: 85%
5,O=C(CSc1n[nH]c(-c2ccc(F)cc2)n1)N1CCN(c2ccc(F)cc2)CC1,active: -5%
6,CCOC(=O)c1cc(S(=O)(=O)Nc2ccccc2)[nH]n1,inactive: 102%
7,COc1ccc(C2=NC(c3ccccc3)=Nc3ccc(C)cc3N2)cc1,inactive: 85%
8,CCc1ccc(CNC(=O)C2CCN(c3nn4cc(-c5ccc(OC)cc5)nc4s3)CC2)cc1,inactive: 76%
9,COC(=O)c1ccccc1NC(=O)c1ccc(CN2CC(=O)N3CCCCC3C2=O)cc1 (stereo not given),inactive: 76%
10,CC1CCN(S(=O)(=O)c2ccc3c(c2)CCN3C(=O)Nc2ccccc2Br)CC1,inactive: 76%
11,COc1ccc2c(c1)cc(CNc1ccc(OC)c(OC)c1)c(=O)n2CC(=O)Nc1ccccc1C,inactive: 88%
12,Fc1ccc(N2CCN(c3nc4ccccc4c4nc(-c5ccccc5)nn34)CC2)cc1,inactive: 81%
13,COc1ccc(OCC(=O)Nc2ccc(-c3nc4cc(C)cc(C)c4o3)cc2)cc1,inactive: 75%
14,Cc1ccc(S(=O)(=O)Nc2cccc(-c3ccc(N4CCC(C)CC4)nn3)c2)s1,active: -1%
15,CCOc1ccccc1Nc1nc2ccccc2c2nncn12,inactive: 56%
16,COc1cccc2c1cc1c(=O)n(CC(=O)N3CCN(c4cccc(C)c4C)CC3)nc(C)n12,inactive: 92%
17,Cc1ccc(CNC(=O)C2CCN(S(=O)(=O)N3CCCCC3)CC2)cc1,inactive: 98%
18,COc1ccc(CCNC(=O)CCc2c(C)nc3c4c(C)cc(C)nc4nn3c2C)cc1OC,inactive: 82%
19,CCOc1ccc(CNC(=O)c2ccc3oc(=O)n(Cc4ccccc4)c3c2)cc1,inactive: 79%
20,CCc1cccc(NS(=O)(=O)c2c(C)[nH]c(=O)[nH]c2=O)c1,inactive: 46%
21,O=C(NCc1cccc(Cl)c1)c1c2c(nc3ccccc13)C(=O)N(C1CCCCC1)C2,inactive: 144%
